About 1,800 (2.5%) of roughly 73,000 compounds were called active. The inconclusive results got no clear call from the source; some entries with a clear call stand among them for comparison. Calls follow the shape of the dose curve; as a rule, active = well fitted activation curve with a large enough effect; inconclusive = small, poorly fitted or top-dose-only effect; inactive = no such curve, though single readings can be large or run the other way. No potency is given beside an inconclusive call; the fits are too rough. Some structures have more than one record in an assay (separate samples or runs), and their calls can disagree.
Test: qHTS Assay for Agonists of the Thyroid Stimulating Hormone Receptor: Activators of Intracellular cAMP Concentrations in Parental HEK 293; also: nearly all actives have a fitted effect of over 55% in size; as to activation: % of control where 0% means no effect
Conditions: parental HEK293 CNG cAMP sensor, membrane potential fluorescence; activation: at 57.1 µM (top of the series) unless noted
In short: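 Counterscreen for endogenous-receptor signalling: CNG-channel HEK 293 cells report cAMP rise by membrane depolarization. After 60 min dye equilibration with 100 uM RO 20-1724, compounds incubated 30 min before bottom-read fluorescence at 590 nm.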
With `CN(C)c1ccc(-c2nc(N3CCNCC3)c3ccccc3n2)cc1` the “activation” value was inactive: -77.6%. With `CCC(C)c1ccc(O)c(NC(=O)c2cccnc2)c1` (stereo not given) the “activation” value was inactive: -15.8%. In the case of `COc1ccc(C(=O)N2CCC3(CCCN(CC(C)C)C3)CC2)cc1`, the “activation” value is reported as inactive: 9.46%. With `C=CCSC1=C(C#N)C(c2ccccc2OC)CC(=O)N1` (stereo not given) the Potency was inconclusive [activator, single point]. For `COC(=O)Cc1c(C)nc2nc(-c3ccc(OC)cc3)[nH]n2c1=O`, the “activation” value was inactive: -6.24%. With `COc1ccc(CCNC(=O)C(C)OC(=O)c2ccco2)cc1OC` (stereo not given) the Potency was inconclusive [activator, partial curve, poor fit]. For `C=CCn1cnc2c(c1=O)c1nc3ccccc3nc1n2/N=C/c1cccc(OC)c1OC`, the “activation” value was inactive: -7.86%. With `COCCNC(=O)C(C)OC(=O)c1cc2occc2n1C` (stereo not given) the Potency was inconclusive [activator, single point]. In the case of `Cc1ccc2cc(CN(Cc3ccc(F)cc3)Cc3nnnn3C3CCCC3)c(=O)[nH]c2c1`, the Potency is reported as inconclusive [activator, single point]. With `Cc1ccc2[nH]c(=O)c(CN(Cc3cccs3)Cc3nnnn3Cc3ccccc3)cc2c1` the Potency was inconclusive [activator, single point]. For `CCN1CCN(C(=O)c2sc3nc(C)nc(N4CCC(C)CC4)c3c2C)CC1`, the Potency was inconclusive [activator, partial curve]. For `CCOc1ccccc1NC(=O)N1CCCC(c2nc3c(nnn3Cc3ccc(C)cc3)c(=O)[nH]2)C1` (stereo not given), the Potency was inconclusive [activator, partial curve]. In the case of `N#Cc1nc(COc2ccc(Cl)cc2Cl)oc1N1CCOCC1`, the Potency is reported as inconclusive [activator, partial curve]. For `CCOc1ccc(-c2nnc3n2N=C(c2ccc(OC)cc2)CS3)cc1`, the “activation” value was inactive: 4.11%. In the case of `Fc1ccccc1N1CCN(CCCNc2ccc3nncn3n2)CC1`, the Potency is reported as inconclusive [activator, single point]. With `CCOc1ccccc1NC(=O)Cc1ccccc1OC` the Potency was inconclusive [activator, single point]. With `COc1ccccc1NC(=O)COc1cccc(-n2cnnn2)c1` the Potency was inconclusive [activator, single point]. For `O=C(Nc1ccccn1)C1CCN(S(=O)(=O)c2cccs2)CC1`, the Potency was inconclusive [activator, single point]. With `COc1ccc(C(=O)N2CCC3(CCCN(Cc4ccc(C#N)cc4)C3)CC2)cc1` the Potency was inconclusive [activator, full curve]. In the case of `COc1ccccc1NC(=O)c1oc2ccc(C)cc2c1C`, the Potency is reported as inconclusive [activator, single point]. For `O=C(CSc1nc2ccsc2c(=O)n1-c1ccccc1)N1CCCC1`, the Potency was inconclusive [activator, partial curve]. With `O=C1CCC(=O)N1CN(C(=O)c1ccco1)c1ccccc1` the “activation” value was inactive: 4.55%. For `Cc1ccc2oc(-c3ccco3)nc2c1`, the “activation” value was inactive: 13.5%. In the case of `O=S(=O)(c1ccc(F)c2ccccc12)N1CCCCC1`, the Potency is reported as active: 31.6 µM. In the case of `CC(C)Sc1nc2c(c(=O)n(C)c(=O)n2C)n1Cc1ccc(Cl)cc1`, the Potency is reported as active: 7.94 µM. With `Cc1ccc(-c2nnc(SCC(=O)O)n2N)cc1` the “activation” value was inactive: -0.396%. With `Nc1ncnc2nc(-c3ccc(C[P+](c4ccccc4)(c4ccccc4)c4ccccc4)cc3)[nH]c12` the activation was inactive: -2.88% [at 11.4 µM]. In the case of `CCOCC(=O)Nc1nc2c(s1)C(=O)CC(C)(C)C2`, the activation is reported as inconclusive: 32.5% [activator]. For `OCCN1CCN(c2nc(-c3ccccc3)c3cc(Cl)ccc3n2)CC1`, the Potency was inconclusive [activator, partial curve]. For `Cc1nc2ccccc2n1CC(=O)OCC(=O)Nc1ccc2c(c1)OCCO2`, the Potency was inconclusive [activator, single point]. For `Cc1cc(C)n(-c2nc3c(c(=O)n(C)c(=O)n3C)n2Cc2cccc(Br)c2)n1`, the Potency was inconclusive [activator, full curve]. In the case of `Nc1c(C(=O)N2CCCCC2)sc(=S)n1-c1ccccc1`, the “activation” value is reported as inactive: -4.63%. For `CCN(CC)c1ccc(-c2nn3c(-c4n[nH]c5c4CCC5)nnc3s2)cc1`, the Potency was active: 31.6 µM. With `Cc1cc(C(=O)CSc2nnc(-c3ccco3)o2)c(C)n1-c1ccc2c(c1)OCCO2` the Potency was active: 15.8 µM. With `CCOC(=O)C1CCN(C(=O)Nc2ccc3nc(-c4ccco4)c(-c4ccco4)nc3c2)CC1` the “activation” value was inactive: -2.93%. For `CCOc1ccccc1NC(=O)CSc1ncnc2c1oc1ccccc12`, the Potency was active: 25.1 µM. In the case of `Cn1c(=O)c2c(nc(-n3ccnc3)n2Cc2ccc(Cl)cc2Cl)n(C)c1=O`, the Potency is reported as inconclusive [activator, single point]. With `C[C@H]1[C@H](C)CC[C@@]2(C(=O)O)CC[C@]3(C)C(=CC[C@H]4[C@@]5(C)C[C@@H](O)[C@H](O)[C@@](C)(CO)[C@@H]5CC[C@@]43C)[C@@H]12` the Potency was inconclusive [activator, single point]. With `FC(F)(F)c1cc(-c2cccs2)nc(N2CCOCC2)n1` the Potency was inconclusive [activator, single point]. For `C/C(=C(\C#N)C(=O)NCCCN1CCOCC1)N(C)C`, the Potency was inconclusive [activator, single point]. With `CCOC(=O)C1=C(N)OC2=C(C(=O)CC(C)(C)C2)C1C1CCCCC1` (stereo not given) the Potency was inconclusive [activator, full curve]. With `Cc1ccc(C)c(N(CC(=O)NC2CCCC2)C(=O)CCCC(=O)Nc2ccccn2)c1` the Potency was inconclusive [activator, full curve, poor fit]. With `CCn1c(SCC(=O)c2ccc(Cl)cc2)nnc1-c1ccoc1C` the Potency was active: 25.1 µM. In the case of `COc1cc(OC)cc(C(=O)Nc2ccc(-c3nc4ccccc4o3)c(O)c2)c1`, the Potency is reported as inconclusive [activator, partial curve]. In the case of `COc1ccccc1Oc1ccc(S(=O)(=O)NCc2ccccn2)cc1`, the Potency is reported as inconclusive [activator, single point]. With `CCOC(=O)c1c(NC(=O)c2cccs2)sc2c1CC(C)(C)OC2` the Potency was inconclusive [activator, partial curve]. In the case of `COc1ccc(C(CNC(=O)CN2C(=O)NC3(CC(C)CC(C)(C)C3)C2=O)N2CCOCC2)cc1` (stereo not given), the Potency is reported as inconclusive [activator, partial curve]. With `Cc1ccc(-c2nnc(N3CCCCC3)c3ccccc23)cc1S(=O)(=O)N1CCN(C)CC1` the Potency was inconclusive [activator, partial curve]. In the case of `COc1ccc(C2CC(=O)c3cnc(NC(=O)c4cc(OC)cc(OC)c4)nc3C2)cc1` (stereo not given), the Potency is reported as inconclusive [activator, partial curve]. With `CCOC(=O)c1c(N)nn(C(=O)C(C)C)c1-c1ccccc1` the Potency was inconclusive [activator, partial curve]. With `Cc1cc(Cl)ccc1OCC(=O)N1C(C)CCCC1C` (stereo not given) the Potency was inconclusive [activator, partial curve, poor fit]. In the case of `CC(=O)CC1(C)OC(N)=C(C#N)C1(C#N)C#N` (stereo not given), the Potency is reported as inconclusive [activator, single point]. In the case of `COc1ccc2c(c1)c(CC(=O)N1CCOCC1)c(C)n2C(=O)c1ccc(Cl)cc1`, the Potency is reported as active: 39.8 µM. For `CCOC(=O)CCc1c(C)nc(SCCN2CCCC2)c(C#N)c1C`, the Potency was inconclusive [activator, partial curve]. With `O=c1c2ccccc2nc(-c2ccccc2)n1CCN1CCOCC1` the Potency was inconclusive [activator, single point]. For `COc1cc(C2NC(=O)NC(c3ccccc3)=C2C(C)=O)ccc1OCC(=O)O` (stereo not given), the Potency was active: 31.6 µM. With `Cc1ccc(CNC(=O)C2c3ccccc3C(=O)N(C)C2c2c[nH]c3ccccc23)o1` (stereo not given) the Potency was active: 25.1 µM. With `Cc1nc2sccn2c1-c1nc(-c2cc3ccccc3o2)cs1` the Potency was inconclusive [activator, single point]. For `N#Cc1ccc(CSc2nnc(-c3ccncc3)n2CCc2ccccc2)cc1`, the Potency was inconclusive [activator, single point]. In the case of `COc1cc(Cn2c(N)c(C#N)c3nc4ccccc4nc32)cc(OC)c1`, the “activation” value is reported as inactive: -16.8%. For `Cc1cccc(-n2nnnc2SCn2nnc3ccccc3c2=O)c1`, the Potency was active: 25.1 µM. For `C[C@H](NC(=O)[C@@H]1C[C@H]1[C@@H](NC(=O)OCc1ccccc1)c1ccccc1)c1ccccc1`, the Potency was inconclusive [activator, partial curve]. In the case of `CCOc1ccc2c(c1)sc(=NC(=O)C1CC1)n2C`, the “activation” value is reported as inactive: 12.1%. For `CNCCCC12CCC(c3ccccc31)c1ccccc12`, the Potency was active: 39.8 µM. In the case of `COC(=O)C/C=C\[C@H](C)[C@@H](OCc1ccccc1Br)C(C)C`, the Potency is reported as inconclusive [activator, single point]. For `COC(=O)c1ccc2c(=O)n(Cc3ccc4c(c3)OCO4)c(SCC(=O)N3CCCC3)nc2c1`, the Potency was inconclusive [activator, partial curve]. With `CC(C)n1nnnc1C(c1ccc(F)cc1)N1CCN(C2CCCC2)CC1` (stereo not given) the Potency was inconclusive [activator, full curve, poor fit]. In the case of `O=C1Cc2c([nH]c3ccc(Br)cc23)-c2ccccc2N1`, the Potency is reported as inconclusive [activator, single point]. For `Cc1cccc(CNc2ncncc2-c2cccc(NS(C)(=O)=O)c2)c1`, the Potency was inconclusive [activator, single point]. With `Nc1nc(-c2ccccc2)nc(-c2ccccc2O)n1` the Potency was inconclusive [activator, single point].

From PubChem BioAssay AID938 (National Center for Advancing Translational Sciences (NCATS), 2007)
Potency is read from the fitted curve at half-maximal effect; tags tell the direction and shape of the fitted curve.
